Values marked as one replicate rest on one cluster of the flow cell; about a third of the high ones do not repeat.
Tested on: ATP
Experiment: switch fluorescence ratio, 500 uM ATP over buffer (Cy3 cluster intensity, sum of 5 cycles each) (fold (ratio)); higher = stronger signal-on switching upon ATP binding; sequences stand for … in TCGTCGGCAGCGTCAGATGTGTATAAGAGACAGTTTTTTTTTTTTTTTTTTTTTTTTT…TC
Conditions: aptamer strand: ATP DNA aptamer (quencher-CACCTGGGGGAGTATTGCGGAGGAAGG + anchor), 100 nM annealed; ATP concentration: 500 uM; one replicate
Outline: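 After annealing to 100 nM quencher-labelled ATP aptamer, Cy3-labelled switching-strand clusters on a modified Illumina MiSeq flow-cell were imaged in selection buffer. A second image followed after 15 min with 500 uM ATP at 22 °C, and five such buffer/ATP cycles were done, each separated by NaOH stripping and re-annealing. The fluorescence ratio, averaged per switch-domain sequence, is summed target-cycle over summed buffer-cycle Cy3 intensity per cluster, with clusters outside 100-1000 RFU excluded.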
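Also: ATP exposure 15 min at 22 °C before imaging.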

| Sequence | switch fluorescence ratio |
| --- | --- |
| AAACATCGAT | 0.986 |
| TAGTTTAGTC | 1.02 |
| ATTGAGAGCC | 1.04 |
| GAGATACAAA | 1 |
| CGAGGGCAC | 1.01 |
| CTCTTGAAGA | 0.955 |
| CGCAGTCCT | 1.09 |
| GAGCATACGG | 1.2 |
| ATAGGTGCTC | 1.01 |
| GGGCTCCCCG | 1.39 |
| AGACTACAAC | 1.09 |
| TGACGTCGCT | 0.971 |
| ATGGGATGTC | 0.921 |
| CTGTGTTGAC | 1.01 |
| GGGGATTTTA | 0.993 |
| AGTATGTCAC | 0.984 |
| AGGTTATCCA | 0.987 |
| CTGGCCGGGT | 1.04 |
| GTGTCGGATG | 1 |
| TTGTCTTACA | 1.01 |
| GGTGCTCTAT | 1.02 |
| TCATATATGC | 1.03 |

| Sequence | switch fluorescence ratio |
| --- | --- |
| AACCAAGAGA | 0.989 |
| CCATGCCTCT | 1.01 |
| AAAATCGGC | 1.88 |
| GGAATTAGTT | 1 |
| TGATTCTCCG | 1.09 |
| AGCAAACAGG | 1.68 |
| TCGGACTGGT | 0.987 |
| CTTAGTGGGT | 0.995 |
| CATCGTCGCC | 0.967 |
| CCGAGTTATT | 1.13 |
| ACTTGAGGT | 0.95 |
| CTAGGGCGAC | 0.989 |
| TCACCGCAGG | 1.04 |
| GATGTTTTTG | 0.977 |
| GGCGTGAGCG | 1.02 |
| CACATATGA | 1.07 |
| TGGGAACATC | 1.01 |
| TGTGGCAGCC | 0.984 |
| CCACAGATTT | 1.13 |
| TAAGCCGGAA | 1.04 |
| TCGTTATACT | 1.76 |
| ATGAACAGGC | 1.02 |

| Sequence | switch fluorescence ratio |
| --- | --- |
| GATTCTGAAT | 0.953 |
| TTTTCGATTC | 1.05 |
| GTAATTGTAG | 1 |
| GGCGCGTACT | 1.07 |
| ATTCGGATAA | 0.957 |
| GTCTAAGGTC | 0.931 |
| TTCCAGTC | 0.968 |
| ATCGATCCGC | 1.23 |
| ACTATGTTTT | 1.04 |
| ACAATGGTGG | 0.994 |
| TAATCAAATA | 1 |
| GGTTTGCAAA | 0.962 |
| ACATAATGAT | 0.969 |
| ATTAATGTGG | 0.979 |
| TGCTTATTCC | 1.08 |
| CGGTGCCGAA | 0.902 |
| TGCCGCAATT | 5.39 |
| TATGAGTA | 1.01 |
| GCTGGGCCCA | 0.968 |
| CAGTGTCATG | 0.991 |
| GTTAACGGTG | 1.05 |
| ACCATTTTAA | 0.953 |

| Sequence | switch fluorescence ratio |
| --- | --- |
| TGTTGACGCA | 1.09 |
| ATAGACGCGA | 1.12 |
| CTAAATTC | 1.02 |
| GGGATCGAT | 1.04 |
| TAGTAGGATA | 0.991 |
| GTAACCGACG | 1.27 |
| AGTCGACTGG | 0.987 |
| TAGTTATAGG | 1 |
| CTAAACGTAG | 1.01 |
| ACCAGTTTGT | 1.03 |
| CCATCTGTGC | 1.09 |
| ACGCAATGTT | 3.05 |
| CAGGAGGTTC | 0.995 |
| GCAGCCAAAC | 3.07 |
| ATGGCTTTCT | 1.01 |
| TCGGGGTTGA | 1.03 |
| AACCTTGAAT | 0.973 |
| GACAAGGCCA | 1.04 |
| GTCCCACCTA | 1.01 |
